Screen size: about 150,000 compounds; about 540 (0.36%) showed an effect of 50% or more. This is one part of the list.
System: Plasmodium falciparum
Test: Primary screen in NF54 nanoGlo assay, in single point, at 2uM, 72h; a lower Z score goes with more inhibition
Format: functional, Erythrocyte
Details: timepoint 72 hour

Compound | % Inhibition [%] | Z score
Cc1cccc2oc(CCNC(=O)C3CC3c3c(F)cccc3Cl)nc12 (configuration not stated) | 30 | -3.4
Cc1nc(CNc2ccn(C)n2)cs1 | -11 | 1.62
COCc1nc(CC(C)C)nc(N2CCN(C(=O)c3cccs3)CC2)c1Cc1cc(C)ccc1C | 10 | -1.46
Cc1cccc(C2(c3noc(C(C)(C)C(N)=O)n3)CC2)c1 | -4 | 0.64
O=C(NCCC1=CCCCC1)c1cc(N2CCc3ccccc3C2)nc2ccccc12 | -16 | 1.51
CCC[N+](C)(CCC)Cc1cc2ccccc2c2c1COC2 | -4 | 0.71
COc1ccc(Cl)cc1C(=O)N1CCOc2ccc(CO)cc2C1 | -15 | 1.88
O=C1CCCC(=O)N1CCS(=O)(=O)Nc1ccc(Cl)c(N2CCCS2(=O)=O)c1 | -15 | 2.19
Cc1nn(Cc2nnc(-c3ccccc3)o2)c(=O)c(C#N)c1C | -10 | 1.35
CCOC(CS(=O)(=O)N1CCC2C(CCC(=O)N2C2CC2)C1)C1CC1 (configuration not stated) | 9 | -1.17
Cc1cc(-n2nc(-c3ccccc3)nc2CC[C@@H]2NC(=O)NC2=O)ccn1 | -6 | 0.84
CCCC(=O)[C@H](C#N)c1nc2cc(Cl)ccc2c(=O)[nH]1 | -10 | 1.81
Cc1noc2nc(-c3cnn(C)c3)cc(C(=O)N3CCCC[C@H]3c3ccccc3)c12 | -23 | 4.56
O=C(Cc1ccc(NC(=O)c2ccc(Br)cc2)cc1)Nc1nncs1 | -4 | 0.57
Cc1cc(C)c2cc(CN3CCCN(CC(F)F)CC3)[nH]c2c1 | -27 | 3.21
O=C(Nc1ccc2c(c1)OCO2)C1CC2CCC1C2 (configuration not stated) | -12 | 2.22
COc1ccc(Cl)cc1NC(=O)N1CCC[C@H](Oc2nc(C)cc(C)n2)C1 | 5 | -0.71
CCCCN[C@H]1CS(=O)(=O)C[C@@H]1S(=O)(=O)c1ccccc1 | 2 | -0.2
N#Cc1ccc(N2C[C@@H]3OCC(=O)N(Cc4ccccc4)[C@@H]3C2)nc1 | 15 | -1.74
CN1CCOC(C(NCc2cscn2)c2ccc(Cl)cc2)C1 (configuration not stated) | -4 | 0.66
O=C1C[C@H](c2ccc3c(c2)OCO3)c2c(-c3ccccc3)n[nH]c2O1 | -4 | 0.53

Reference: ChEMBL document CHEMBL4888484, “Replenishing the malaria drug discovery pipeline: Screening and hit evaluation of the MMV Hit Generation Library 1 (HGL1) against asexual blood stage Plasmodium falciparum ,using a nano luciferase reporter read-out” (2022)
